In all, about 39,000 compounds went through this assay and about 220 (0.56%) showed activity. The list shows a part of the results.
Test system: Escherichia coli K-12 BW25113
Test: relative growth (OD600 normalised to plate interquartile mean) (fraction); higher = less growth inhibition, active = 0.2 or less
Conditions: 50 µM; LB; incubation time: overnight (16-24 h)
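Further: static incubation at 37 °C against the wild-type strain, values averaged over two biological replicates.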

SMILES	relative growth
COCC(=O)N(C)C[C@@H]1Oc2cc(-c3ccc(C#N)cc3)ccc2S(=O)(=O)N([C@H](C)CO)C[C@@H]1C	inactive: 0.978
C[C@@H]1CN([C@H](C)CO)C(=O)c2cccc(NS(=O)(=O)c3cn(C)cn3)c2O[C@H]1CN(C)S(=O)(=O)c1cn(C)cn1	inactive: 0.943
C[C@H]1CN([C@@H](C)CO)C(=O)Cc2cc(NC(=O)Nc3ccc(F)cc3)ccc2O[C@@H]1CN(C)Cc1ccc(Oc2ccccc2)cc1	inactive: 1.06
COc1ccc(CN(C)C[C@@H]2OCCCC[C@@H](C)Oc3ccc(NC(=O)c4ccncc4)cc3C(=O)N([C@@H](C)CO)C[C@@H]2C)cc1	inactive: 0.996
O=C(NCCN1CCCC1)[C@H]1N[C@H]2c3ccc(-c4ccccc4)c(=O)n3C[C@H]2[C@@H]1CO	inactive: 0.982
C[C@H]1CN([C@@H](C)CO)C(=O)Cc2cc(NS(=O)(=O)c3cccs3)ccc2O[C@@H]1CN(C)S(C)(=O)=O	inactive: 1.01
COc1cccc(S(=O)(=O)N(C)C[C@@H]2Oc3ncc(C#CCC(C)C)cc3C(=O)N([C@H](C)CO)C[C@H]2C)c1	inactive: 1.02
NC(=O)C1CCOCC1	inactive: 0.985
C[C@H](CO)N1C[C@H](C)[C@H](CN(C)Cc2cncnc2)Oc2ncc(C#C[C@@H](C)O)cc2C1=O	inactive: 0.981
C[C@H](CO)N1C[C@H](C)[C@H](CN(C)CC2CCCCC2)Oc2ccc(NC(=O)Nc3ccccc3)cc2C1=O	inactive: 0.97
CC(C)NCC(O)COc1ccc(COCCOC(C)C)cc1.O=C(O)C=CC(=O)O (stereo not drawn)	inactive: 1.04
O=C(C[C@H]1CC[C@H]2[C@@H](COC[C@H](O)CN2C(=O)Nc2ccc(Cl)cc2)O1)NCCc1ccncc1	inactive: 0.882
O=C(NO)c1ccc(C(=O)N/N=C/[C@H](O)[C@@H](O)[C@H](O)[C@H](O)CO)cc1	inactive: 1.02
CC(C)c1ccccc1Cc1cc(C(=O)Nc2ccc(S(=O)(=O)c3ccccc3C(C)(C)C)cc2)c(O)c(O)c1O	inactive: 1.1
C[C@H](CO)N1C[C@H](C)[C@@H](CN(C)Cc2ccccc2F)Oc2cc(C#CC3CC3)ccc2S1(=O)=O	inactive: 0.927
C[C@@H]1CN([C@H](C)CO)C(=O)c2cc(NC(=O)NC3CCCCC3)ccc2O[C@@H](C)CCCCO[C@H]1CN(C)Cc1ccccc1	inactive: 0.889
C=C(C)Cn1c(N2CCC(C(N)=O)CC2)nc2c1c(=O)n(C)c(=O)n2C	inactive: 0.994
C[C@@H]1CN([C@@H](C)CO)C(=O)c2c(c3ccccc3n2C)-c2ccccc2CO[C@@H]1CN(C)Cc1ccc2c(c1)OCO2	inactive: 0.992
